Results taken from PubChem BioAssay AID1476 (National Center for Advancing Translational Sciences (NCATS), 2009).
Hit rate of the full screen: of about 200,000 compounds, about 4,500 (2.2%) were called active. The shares of active, inactive and inconclusive entries below differ from those in the screen. Calls follow the shape of the dose curve; as a rule, active = well fitted inhibition curve with a large enough effect; inconclusive = small, poorly fitted or top-dose-only effect, or effect the other way; inactive = flat fitted curve, though single readings scatter. Where the call is inconclusive, the potency comes from a doubtful curve fit.

Target: Cruzipain (Trypanosoma cruzi) (UniProt P25779)
Chain of UniProt P25779 (P25779 whole entry, looked up): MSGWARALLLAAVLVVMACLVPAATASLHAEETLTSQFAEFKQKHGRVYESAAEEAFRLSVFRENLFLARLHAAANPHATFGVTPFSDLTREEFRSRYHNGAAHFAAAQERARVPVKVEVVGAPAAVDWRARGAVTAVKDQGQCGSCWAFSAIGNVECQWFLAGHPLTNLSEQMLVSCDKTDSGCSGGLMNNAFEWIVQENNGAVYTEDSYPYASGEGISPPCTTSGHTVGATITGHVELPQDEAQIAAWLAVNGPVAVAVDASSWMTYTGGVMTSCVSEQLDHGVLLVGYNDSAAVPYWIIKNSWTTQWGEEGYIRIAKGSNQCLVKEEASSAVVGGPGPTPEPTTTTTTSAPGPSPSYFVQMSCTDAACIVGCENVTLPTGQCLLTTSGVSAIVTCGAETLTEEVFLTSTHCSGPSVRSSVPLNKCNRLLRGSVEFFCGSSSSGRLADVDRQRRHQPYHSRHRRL
Assay: qHTS Assay for Promiscuous and Specific Inhibitors of Cruzain (without detergent); also: nearly all actives have a fitted effect of over 40% in size;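 as to max response, negative = inhibition: plate controls were enzyme without inhibitor for no effect and buffer without enzyme for full effect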
Settings: purified cruzain, Z-FR-AMC fluorescence, no detergent
Procedure, shortened: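 Purified cruzain at 1.5 nM, pre-incubated 15 min with compound at room temperature in 100 mM sodium acetate pH 5.5, 5 mM DTT, 0.00005% Triton X-100. Reaction started with 2 uM Z-FR-AMC; AMC fluorescence increase over 60 s gives rate.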
Potency is read from the fitted curve at half-maximal effect; tags tell the direction and shape of the fitted curve.

Row | Compound | Potency | max response, negative = inhibition
1 | CC(C)c1nn2c(=O)cc(COC(=O)c3cccc(NC(=O)CCc4ccccc4)c3)nc2s1 | inconclusive: 31.6 µM [activator, single point] | 
2 | O=C(CSc1oc(-c2ccc(F)cc2)nc1S(=O)(=O)c1ccccc1)c1ccc(Cl)cc1 | active: 31.6 µM | 
3 | CCN(Cc1ccccc1)C(=O)Cn1c(=O)cc(C)c2c(C)nn(-c3cccc(F)c3)c21 | inconclusive: 25.1 µM [activator, single point] | 
4 | Cc1cccc2cc(CN(Cc3ccc(F)cc3)C(=O)N(C)C)c3nnnn3c12 | inconclusive: 39.8 µM [activator, single point] | 
5 | Cc1cccc(C)c1-n1c(C)cc(/C=N\Nc2ccc([N+](=O)[O-])cn2)c1C | active: 15.8 µM | 
6 | COc1ccc(N=C2SC(CC(=O)Nc3ccccc3)C(=O)N2CC2CCCO2)cc1 (configuration not stated) | inconclusive: 39.8 µM [activator, single point] | 
7 | Cc1nn(C)c(C)c1CN(C)C(=O)c1nn2c(c1Br)NC(c1cccs1)CC2C(F)(F)F (configuration not stated) | inconclusive: 31.6 µM [activator, partial curve] | 
8 | Cc1oc2c(cc(NS(=O)(=O)c3cccs3)c3ccccc32)c1C(=O)OC(C)C | active: 31.6 µM | 
9 | Cc1ccc(-c2nnc(Oc3ccc(NC(=O)c4ccccc4)cc3)c3ccccc23)cc1 | inconclusive: 6.31 µM [inhibitor, partial curve] | 
10 | CCOC(=O)C1=C(C)NC(SCC(=O)OC)=C(C#N)C1c1ccc(C(=O)OC)cc1 (configuration not stated) | inconclusive: 39.8 µM [activator, single point] | 
11 | C[C@H](NC(=O)OC(C)(C)C)c1nnc(SCc2ccc(Cl)cc2Cl)o1 |  | inactive: 19.4%
12 | COc1cc(C2CC(=O)N3CN(c4ccccc4C)CSC3=C2C#N)cc(OC)c1OC (configuration not stated) | inconclusive: 39.8 µM [activator, single point] | 
13 | COc1ccccc1-n1c(SCC(=O)O)nnc1-c1ccc(S(=O)(=O)N2CCCCC2)cc1 | inconclusive: 31.6 µM [activator, single point] | 
14 | COc1ccc(-n2ccnc(NCCc3ccc(S(N)(=O)=O)cc3)c2=O)cc1Cl | inconclusive: 39.8 µM [inhibitor, single point] | 
15 | COC(=O)[C@@]1(Cc2ccc(OC)cc2)[C@H]2c3cc(C(=O)N4CCCC4)n(Cc4ccc(S(C)(=O)=O)cc4)c3C[C@H]2CN1C(=O)c1ccccc1 | inconclusive: 20 µM [activator, partial curve] | 
16 | N=C(N)SCCc1ccc(CCSC(=N)N)cc1 |  | inactive: 4.12%
17 | Cc1sc(/N=C/c2c(O)ccc3ccccc23)c(C#N)c1C | inconclusive: 1.58 µM [activator, partial curve] | 
18 | CSc1ccc(CCNC(=O)C2CCCN(S(=O)(=O)N(C)c3ccc(F)cc3)C2)cc1 (configuration not stated) |  | inactive: 14%
19 | COc1cc(C(=O)Nc2ccc(Oc3ncnc4sc(-c5ccccc5)cc34)cc2)cc(OC)c1OC |  | inactive: 9.79%
20 | CN(C)S(=O)(=O)N(CC(=O)NCCSCc1ccc(Cl)cc1Cl)c1ccccc1 | inconclusive: 31.6 µM [activator, single point] | 
21 | Cc1ccccc1NC(=O)CCC(=O)OCC(=O)c1ccc(-c2ccccc2)cc1 | active: 12.6 µM | 

Row | Compound | Potency | max response, negative = inhibition
22 | CCOCCCNC(=O)CN1C(=O)CCn2nc(-c3cccn3C)cc21 |  | inactive: 6.55%
23 | COc1ccc(-c2nnc3sc(-c4ccccc4OC)nn23)cc1 | inconclusive: 31.6 µM [activator, single point] | 
24 | Cc1ccc(-n2nc(C(=O)N(C)c3ccccc3Cl)c3c4ccccc4n(C)c3c2=O)cc1 |  | inactive: -16.5%
25 | O=C(O)CSc1ccn(Cc2ccccc2)c1 |  | inactive: 10.2%
26 | Cc1nc(N2CCN(Cc3nc4ccccc4[nH]3)CC2)c2oc3ccccc3c2n1 | inconclusive: 31.6 µM [activator, single point] | 
27 | Cc1ccccc1-c1nc(CS(=O)CC(=O)N2CCC3(CC2)OCCO3)c(C)o1 (configuration not stated) | inconclusive: 39.8 µM [activator, single point] | 
28 | CCOC(=O)c1sc(NC(=O)c2cc(-c3ccc(C)cc3)nc3ccccc23)c(C#N)c1C | active: 10 µM | 
29 | Clc1ccccc1/C=N/NC1=Nc2cccc3cccc1c23 | inconclusive: 39.8 µM [inhibitor, single point] | 
30 | Cc1ccc(CCNC(=O)CCCn2c(=O)c3cccn3c3ccc(F)cc32)cc1 |  | inactive: 11.3%
31 | CCCCN(CC)CCCNC(=O)c1sc2nc3n(c(=O)c2c1C)CCCCC3 | inconclusive: 12.6 µM [inhibitor, partial curve] | 
32 | COc1ccc2nc(NCCCNC(=O)c3cc(OC)c(OC)c(OC)c3)c(C#N)cc2c1 | inconclusive: 25.1 µM [activator, single point] | 
33 | Cc1ncc(CSc2ccccc2N)c(CO)c1O |  | inactive: 6.26%
34 | O=C(Nc1ncc(Cc2ccccc2Cl)s1)c1ccc2c(c1)CC(c1ccccc1)OC2=O (configuration not stated) | active: 31.6 µM | 
35 | CN1CCN(c2ncc3nc(-c4cccc(C#N)c4)c(=O)n(C)c3n2)CC1 | inconclusive: 39.8 µM [inhibitor, single point] | 
36 | Cc1onc(-c2ccccc2Cl)c1C(=O)Nc1ccc2c(c1)OCO2 |  | inactive: -0.83%
37 | CCc1ccccc1NC(=O)Cn1nnc(C(=O)NCc2cccc(OC)c2)c1N |  | inactive: -20.7%
38 | COc1ccc(C)cc1-n1c(SCC(=O)NCc2ccco2)nc2c([nH]c3ccccc32)c1=O | inconclusive: 15.8 µM [inhibitor, partial curve] | 
39 | Cc1ccc(-c2nc3ccccc3o2)cc1NC(=O)c1ccc2c(c1)OCO2 | inconclusive: 31.6 µM [inhibitor, single point] | 
40 | O=C1CN2CCN(CC2)CC(=O)Nc2ccc(cc2)S(=O)(=O)c2ccc(cc2)NC(=O)CN2CCN(CC2)CC(=O)Nc2ccc(cc2)S(=O)(=O)c2ccc(cc2)N1 | active: 3.16 µM | 
41 | Cc1cc(C)cc(OCC(=O)N(Cc2ccco2)Cc2ccccc2Cl)c1 | inconclusive: 31.6 µM [inhibitor, single point] | 
42 | O=C(Nc1ccc2c(c1)OCO2)c1sc2cc(Cl)ccc2c1Cl | active: 10 µM | 
